Source: publication PMC8957250 (ADMET & DMPK, 2019)
Several values for one entry are separate records, joined by “and”; a condition that tells them apart may be missing. Equal values may be shown once. Read-outs that look alike come from different tables or passages of the source. Marks after values point to notes of the source that are not given here.

Tests used:
[1] = set-up: method as in PMID 10866439; conditions: human; not used in model, for reference; cited from earlier work
[2] = Human OP/OC PBPK model (parameter optimization and simulation); conditions: for clearance: plasma
[3] = footnote of Table 2; cited from earlier work
[4] = tested on: carboxylesterases in rat plasma; conditions: cited from earlier work
Blood to plasma ratio = conditions: for blood plasma ratio at 30 min, 100 μg/ml: rat, whole blood; for time to equilibrium between plasma and blood: rat blood, preliminary studies
[5] = Tissue/plasma partition coefficients by the area method (AUCtissue/AUCplasma); format: in vivo; conditions: rat, po, rats 10 mg/kg OP p.o.
[6] = Tissue distribution study in rats after a single oral dose of OP; format: in vivo, rat; conditions: for AUC(0-t): lung, read-out: AUC0-4h of OC in the lungs; for AUC(0-t) / Cmax: rat; for Cmax: plasma, read-out: Cmax of OC in the plasma
[7] = Rat, Experimental, cited from earlier work
[8] = set-up: method as in PMID 29633861; conditions: rat; cited from earlier work
P-glycoprotein = tested on: P-glycoprotein; set-up: method as in PMID 17940134; conditions: cited from earlier work
in vitro = conditions: human
[9] = tested on: carboxylesterases in human plasma; conditions: cited from earlier work
[10] = rat
[11] = cited from earlier work
[12] = cited from earlier work; remark: listed apart in the source
[13] = set-up: method as in PMID 9517946; conditions: rats, ferrets and mice; cited from earlier work
influenza virus = tested on: influenza virus; set-up: method as in PMID 10628898; conditions: viral replication inhibition assay; cited from earlier work
H1N1 virus neuraminidase = conditions: H1N1 influenza virus neuraminidase; cited from earlier work
neuraminidases = tested on: neuraminidases; set-up: method as in PMID 10628898; conditions: enzymatic assay; read-out: IC50 of OC for neuraminidases; cited from earlier work
[14] = Human, Optimized (value used in model)
[15] = human, humans, 70 kg BW, read-out: clearance normalized by body weight (converted)
[16] = GI tract, adjusted, same for humans
[17] = Kidney, adjusted, same for humans
[18] = Liver, adjusted, same for humans
[19] = Lumped brain (brain + adipose), adjusted to data, same values assumed for humans
[20] = Lumped lung (lung + heart), adjusted, same for humans
[21] = Muscle, adjusted, same for humans
[22] = Spleen, adjusted, same for humans
[23] = The rest of body, adjusted, same for humans
[24] = Human, Optimized, i.v. route (bracketed)
[25] = Rat, Optimized, i.v. route (bracketed)

## CCOC(=O)C1=C[C@@H](OC(CC)CC)[C@H](NC(C)=O)[C@@H](N)C1 [OP, oseltamivir phosphate]
[1]
  Unbound fraction in plasma: 57%
[2]; Human, Optimized
  BLPLR: 1
  Tlag: 0.44 h
[2]; [14]
  Km: 76.0 ^**** mg/L
  Vmax: 2.6x10^5 mg/h and 2.6 x 10^5 ^**** mg/h
[2]; Human, Optimized in PBPK model
  F: 0.75
[2]; Human, Optimized, multiple oral administration (bracketed)
  Ka: 0.14 to 0.28 h⁻¹
[2]; Human, Optimized, single oral dose
  Ka: 0.35 h⁻¹
[2]; [15]
  clearance: 23.3 mL/min/kg
[2]; human, po, humans, final PBPK parameter value, read-out: oral bioavailability factor (F)
  bioavailability: ~80%
[2]; humans, 70 kg BW
  Vmax normalized by body weight: 3714 mg/kg/h
[2]; oral, 150 mg, Human, Optimized, read-out: CLp (converted)
  clearance: 1670 mL/min
[3]
  Km: 187 µM
[4]
  hydrolysis by plasma carboxylesterases in vitro: hydrolyzed primarily to OC
Blood to plasma ratio; Sprague-Dawley
  blood plasma ratio at 30 min, 100 μg/ml: ~1
Blood to plasma ratio
  time to equilibrium between plasma and blood: ≤ 20 min
  blood plasma ratio at 30 min, 100 μg/ml: 1
[5]; [16]
  Kp: 10
[5]; [17]
  Kp: 5
[5]; [18]
  Kp: 3
[5]; [19]
  Kp: 0.5
[5]; [20]
  Kp: 2.5
[5]; [21]
  Kp: 1.4
[5]; [22]
  Kp: 1.5
[5]; [23]
  Kp: 3
[6]; Rat, Experimental, plasma OC curve after 10 mg/kg OP p.o. fitted to one-compartment model
  Ka (absorption rate constant): 0.76 h⁻¹
[7]; AUCp.o.(OP)/AUCi.v.(OC) ratio
  F (oral bioavailability): 0.35
[8]
  plasma protein binding: 53.7%
P-glycoprotein
  P-glycoprotein substrate: P-glycoprotein substrates
In vitro
  Km: 76 µg/mL
[9]
  hydrolysis by plasma carboxylesterases in vitro: not hydrolysed
Rat, Optimized
  BLPLR: 1
  Ka: 12 to 15 h⁻¹
  Tlag: 0.32 to 0.44 h
rats
  Vmax normalized by body weight: 245 mg/kg/h
[10]; po
  bioavailability: ~80%
[11]; Human, Experimental
  CLp: 20 L/h
  F: 0.75
[11]; human
  CL/F: 0.438 L/min
[12]
  brain-to-plasma exposure ratios: approximately 0.2
[13]
  oral bioavailability: 30-73%

## CCC(CC)O[C@@H]1C=C(C(=O)O)C[C@H](N)[C@H]1NC(C)=O [OC, oseltamivir carboxylate]
[1]
  Unbound fraction in plasma: 97%
[2]; Human (70 kg), Optimized
  CLc: 18 L/h
[2]; Human, Optimized
  BLPLR: 1
[2]; [24]
  BLPLR: 0.6
  CLc: 30 L/h
[2]; [15]
  clearance: 4.33 mL/min/kg
Blood to plasma ratio
  time to equilibrium between plasma and blood: ≤ 20 min
[5]; [16]
  Kp: 1
[5]; [17]
  Kp: 8
[5]; [18]
  Kp: 5
[5]; [19]
  Kp: 0.25
[5]; [20]
  Kp: 0.5
[5]; [21]
  Kp: 0.5
[5]; [22]
  Kp: 0.5
[5]; [23]
  Kp: 1
[6]; 10 mg/kg OP oral
  AUC(0-t): 5200 ng·h/mL
[6]; 50 mg/kg OP oral
  AUC(0-t): 26100 ng·h/mL
[6]; 10 mg/kg OP single oral dose
  Cmax: 800 ng/mL
[6]; 50 mg/kg OP single oral dose
  Cmax: 5630 ng/mL
[7]; single 10 mg/kg i.v. dose
  CLc (clearance of OC): 0.38 L/h
P-glycoprotein
  P-glycoprotein substrate: P-glycoprotein substrates
Influenza virus
  IC50: 0.6 to 155 nM
  IC50 of OC: 0.17 to 32.8 ng/mL
Rat (0.25 kg), Optimized
  CLc: 0.38 L/h
Rat, Optimized
  BLPLR: 1
[25]
  BLPLR: 0.7
  CLc: 0.5 L/h
[10]
  clearance: 25 mL/min/kg
H1N1 virus neuraminidase
  IC50: 0.7 to 2.2 nM
[11]; Human, Experimental
  CLc (clearance of OC in urine): 18 L/h
neuraminidases
  IC50: 0.3 to 2 nM
